Publication PMC6919601, “Identification of Plasmodium dipeptidyl aminopeptidase allosteric inhibitors by high throughput screening” (PLoS ONE, 2019)
Hit rate of the full screen: of about 110,000 compounds, about 230 (0.21%) showed an effect of 50% or more. This is one part of the list.

Molecular target: DPAP1 (Plasmodium falciparum, UniProt Q8IIJ9)
Test: primary screen, percent inhibition; read by cleavage of a fluorogenic dipeptide substrate; higher = more effect of the substance
Set-up: species or system P. falciparum D10 trophozoite lysates; single well
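Further: 30 min substrate incubation versus DMSO and 10 µM JCP410 controls.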

Sequence of DPAP1 (Q8IIJ9 whole entry, looked up): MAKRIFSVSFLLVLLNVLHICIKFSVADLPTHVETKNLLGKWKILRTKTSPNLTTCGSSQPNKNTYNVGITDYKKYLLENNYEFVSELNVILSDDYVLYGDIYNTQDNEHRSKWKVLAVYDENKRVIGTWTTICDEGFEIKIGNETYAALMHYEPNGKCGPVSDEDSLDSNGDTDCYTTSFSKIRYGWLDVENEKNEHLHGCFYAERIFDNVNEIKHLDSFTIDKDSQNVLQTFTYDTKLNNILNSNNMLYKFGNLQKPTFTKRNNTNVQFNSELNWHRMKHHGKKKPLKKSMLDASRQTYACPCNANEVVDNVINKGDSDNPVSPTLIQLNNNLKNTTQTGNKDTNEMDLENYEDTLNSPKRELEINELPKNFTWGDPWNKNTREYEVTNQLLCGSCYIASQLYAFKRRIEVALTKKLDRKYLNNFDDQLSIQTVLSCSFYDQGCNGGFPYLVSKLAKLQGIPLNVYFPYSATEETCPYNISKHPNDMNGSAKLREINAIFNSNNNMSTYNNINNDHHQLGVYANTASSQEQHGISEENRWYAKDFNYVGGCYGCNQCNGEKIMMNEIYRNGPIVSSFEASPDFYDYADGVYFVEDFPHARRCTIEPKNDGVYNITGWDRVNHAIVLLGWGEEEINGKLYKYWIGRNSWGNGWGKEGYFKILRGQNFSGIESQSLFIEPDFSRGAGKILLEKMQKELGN

Structure (SMILES) | % Inhibition @ 10 uM [%]
CCc1ccccc1-n1nnc(-c2nc(-c3ccncc3)no2)c1N | 3.73
CC1(C)Cc2nc3sc4c(NCc5ccco5)ncnc4c3cc2CO1 | -2.8
CCC(C)NC(=O)C1CC(c2cc(OC)c(OC)c(OC)c2)=NO1 (stereo not shown) | -9.69
COC(=O)c1ccc(N2Cc3cccc(OC)c3Oc3ncccc32)s1 | 1.63
O=C(NC(c1ccccc1)c1ccccc1)c1ccncc1 | -0.233
CCSc1nnc(NC(=O)c2cc(S(=O)(=O)N3CCOCC3)cn2C)s1 | -7.66
COc1ccc(CCNC(=O)CCCc2nnc3n4nc(C)nc4c4ccccc4n23)cc1OC | -2.92
Clc1ccc(-n2cccc2)cc1 | -5.76
COC(=O)c1cnn2c(C)c(Cc3ccccc3Cl)c(C)nc12 | -0.812
N#C/C(=C/Nc1ccccc1)c1nc(-c2ccc(Cl)cc2)cs1 | -6.01
COc1cccc(C(=O)NC2(C(F)(F)F)C(=O)N(CC(C)C)C3=C2C(=O)CC(C)(C)C3)c1 (stereo not shown) | -2.74
CCOC(=O)c1c(NC(=O)c2cc(-c3ccco3)on2)sc(C(C)=O)c1C | -1.21
CCOC(=O)C1=CN(C)C=C(C(=O)OCC)C1c1ccc(F)cc1 | 6.48
Clc1ccc(Nc2nc(Nc3ccc(Cl)cc3)nc(N3CCOCC3)n2)cc1 | 0.526
O=C(CSc1nnc(CNC(=O)c2c(F)cccc2Cl)o1)c1ccccc1 | -1.58
O=C(C1=C(O)C(=O)N(CCN2CCOCC2)C1c1cccc(O)c1)c1cc2ccccc2o1 (stereo not shown) | -0.28
Cc1ccc(S(=O)(=O)Nc2ccc3nc(-c4cccc(F)c4)oc3c2)cc1 | 4.12
CCCCNC(=O)c1ccc2c(SCC(=O)O)c3c(nc2c1)CCCC3 | -2.45
N#CC1=C(N)Oc2c(ccc3ccccc23)C1c1ccc(C(F)(F)F)cc1 (stereo not shown) | 2.91
CCOc1ccc(/C=C/c2nc(C#N)c(N3CCN(C)CC3)o2)cc1 | 3.27
CCC(Sc1nc2ccncc2[nH]1)C(=O)N(CC)CC (stereo not shown) | -0.85
C#CCSc1nc2c(cc1C#N)CCCC2 | 1
CC1CN(Cc2c(O)ccc3ccccc23)CC(C)O1 (stereo not shown) | -7.91
O=C1C2C3C=CC(CC3)C2C(=O)N1Cc1ccccc1 (stereo not shown) | 7.1
O=C(c1ccc(N2C(=O)C3CC=CCC3C2=O)cc1)N1CCCCC1 (stereo not shown) | 0.323
Cc1ccc(C2=NCCNC2=O)c(C)c1 | -9.56
O=C(/C=C/c1ccco1)Nc1scc(-c2ccccc2)c1C(=O)O | 2.94
Cc1sc(C2C(C#N)=C(N)OC3=C2C(=O)CCC3)cc1COc1ccccc1Br (stereo not shown) | 1.35
